# Test results as given in US6448281B1 (Boehringer Ingelheim (Canada) Ltd., priority 2000, dated 2002).
# Target: hepatitis C virus RNA dependent polymerase (NS5B) (Hepacivirus hominis (Hepatitis C virus), UniProt P26663)
# Experiment: Inhibition of NS5B RNA dependent RNA polymerase activity (SPA, UMP-[5,6 3H] incorporation)
# [1] = IC50 μM, first compound table (printed title TABLE 10; Table 1)
SMILES,IC50 [1] [µM],"IC50 (IC50 μM, Table 2) [µM]",also measured
"CC(C)(CO)NC(=O)[C@H](Cc1c[nH]c2ccc(O)cc12)NC(=O)c1ccc2c(c1)nc(-c1ccoc1)n2C1CCCCC1 [Entry 13021, 1-Cyclohexyl-2-furan-3-yl-1H-benzimidazole-5-carboxylic Acid [(S)-1-(2-Hydroxy-1,1-dimethyl-ethylcarbamoyl)-2-(5-hydroxy-1H-indol-3-yl)-ethyl]-amide]",–,–,"IC50 (IC50, Table 13): < 1 µM"
O=C(Nc1ccc(-c2ccc(C(=O)O)o2)cc1)c1ccc2c(c1)nc(-c1ccoc1)n2C1CCCCC1 [Entry 1239],1 to 5,–,–
NC(=O)[C@@H](Cc1ccc(O)cc1)NC(=O)c1ccc2c(c1)nc(-c1ccoc1)n2C1CCCCC1 [Entry 1156],5 to 10,–,–
O=C(N[C@H](CO)c1ccccc1)c1ccc2c(c1)nc(-c1ccoc1)n2C1CCCCC1 [Entry 1008],1 to 5,–,–
O=C(NC(C(=O)O)c1ccc(Cl)cc1)c1ccc2c(c1)nc(-c1ccoc1)n2C1CCCCC1 (centres unmarked) [Entry 1012],1 to 5,–,–
COc1ccc(C(NC(=O)c2ccc3c(c2)nc(-c2ccco2)n3C2CCCCC2)C(=O)O)cc1OC (centres unmarked) [Entry 2048],–,1 to 5,–
O=C(O)c1ccc2c(c1)nc(-c1cccs1)n2C1CCCCC1 [Entry 7026],–,–,"IC50 (IC50 μM, Table 7): 1 to 5 µM"
COc1ccc(C(NC(=O)c2ccc3c(c2)nc(-c2ccc4c(c2)OCCO4)n3C2CCCCC2)C(=O)O)cc1OC (centres unmarked) [Entry 2036],–,10 to 25,–
COc1ccc(C(NC(=O)c2ccc3c(c2)nc(-c2ccc(O)cc2)n3C2CCCCC2)C(=O)O)cc1OC (centres unmarked) [Entry 2033],–,10 to 25,–
"NC(=O)[C@H](Cc1c[nH]c2ccc(NC(=O)C(=O)NO)cc12)NC(=O)c1ccc2c(c1)nc(-c1ccoc1)n2C1CCCCC1 [Entry 13011, N^1-[3-((S)-2-Carbamoyl-2-{[1-(1-cyclohexyl-2-furan-3-yl-1H-benzimidazol-5-yl)-methanoyl]-amino}-ethyl)-1H-indol-5-yl]-N^2-hydroxy-oxalamide]",–,–,"IC50 (IC50, Table 13): < 1 µM"
CC1CCCCC1n1c(-c2ccoc2)nc2cc(C(=O)NC(Cc3c[nH]c4ccc(O)cc34)C(=O)O)ccc21 (centres unmarked) [Entry 3024],–,–,"IC50 (IC50 μM, Table 3): 1 to 5 µM"
CC(CC(=O)Nc1ccc2[nH]c(C(=O)O)c(-c3ccccc3)c2c1)NC(=O)CC(C)NC(=O)c1ccc2c(c1)nc(-c1ccoc1)n2C1CCCCC1 (centres unmarked) [Entry 1165],10 to 25,–,–
O=C(N[C@H](CO)c1ccccc1)c1ccc2c(c1)nc(-c1ccccn1)n2C1CCCCC1 [Entry 2010],–,10 to 25,–
O=C(N[C@@H](Cc1ccc([N+](=O)[O-])cc1)C(=O)O)c1ccc2c(c1)nc(-c1ccoc1)n2C1CCCCC1 [Entry 1017],5 to 10,–,–
Cn1nnc(-c2ccc(C[C@H](NC(=O)c3ccc4c(c3)nc(-c3ccoc3)n4C3CCCCC3)C(=O)O)cc2)n1 [Entry 16036],–,–,"IC50 (IC50, Table 16): < 1 µM"
"Cn1cc(C[C@H](NC(=O)c2ccc3c(c2)nc(-c2ccoc2)n3C2CCCCC2)C(N)=O)c2cc(OC(C)(C)C(=O)O)ccc21 [Entry 1176, 2-[3-((S)-2-Carbamayl-2-{[1-(1-cyclohexyl-2-furan-3-yl-1H-benzimidazol-5-yl)-methanoyl-]amino}-ethyl)-1-methyl-1H-indol-5-yloxy]-2-methyl-propionic Acid]",1 to 5,–,–
C[C@@H](NC(=O)c1ccc2c(c1)nc(-c1ccc(OCC(=O)NCCCN(C)C)cc1)n2C1CCCCC1)c1ccc2ccccc2c1 [Entry 2071],–,1 to 5,–
O=C(O)CNC(=O)c1ccc2c(c1)nc(-c1ccccn1)n2C1CCCCC1 [Entry 2016],–,10 to 25,–
COc1ccc(-c2nc3cc(C(=O)NC(C(=O)O)c4ccc(OC)c(OC)c4)ccc3n2C2CCCCC2)cc1 (centres unmarked) [Entry 2031],–,10 to 25,–
COc1ccc(CNC(=O)c2ccc3c(c2)nc(-n2cccc2)n3C2CCCCC2)cc1OC [Entry 2011],–,10 to 25,–
O=C(NC1CCCN(Cc2ccccc2C(=O)O)C1)c1ccc2c(c1)nc(-c1ccoc1)n2C1CCCCC1 (centres unmarked) [Entry 1270],10 to 25,–,–
COc1ccc(C(NC(=O)c2ccc3c(c2)nc(C=C(C)C)n3C2CCCCC2)C(=O)O)cc1OC (centres unmarked) [Entry 2037],–,10 to 25,–
O=C(O)CCC(=O)N[C@H]1CC[C@H](NC(=O)c2ccc3c(c2)nc(-c2ccoc2)n3C2CCCCC2)CC1 [Entry 1222],10 to 25,–,–
"O=C(NC(Cc1cc(F)c(O)c(F)c1)C(=O)O)c1ccc2c(c1)nc(-c1ccoc1)n2C1CCCCC1 (racemic) [Entry 1153, 2-{[1-(1-Cyclohexyl-2-furan-3-yl-1H-benzimidazol-5-yl)-methanoyl]-amino}-3-(3,5-difluoro-4-hydroxy-phenyl)-propionic Acid]",1 to 5,–,–
"O=C(NC(Cc1ccc(O)cc1)C(F)(F)F)c1ccc2c(c1)nc(-c1ccoc1)n2C1CCCCC1 (racemic) [Entry 1122, 1-Cyclohexyl-2-furan-3-yl-1H-benzimidazole-5-carboxylic Acid [2,2,2-trifluoro-1-(4-hydroxy-benzyl)-ethyl]-amide]",5 to 10,–,–
O=C(O)COc1ccc2[nH]cc(C[C@H](NC(=O)c3ccc4c(c3)nc(-c3ccc(C(F)(F)F)cc3)n4C3CCCCC3)C(=O)O)c2c1 [Entry 12024],–,–,"IC50 (IC50, Table 12): < 1 µM"
O=C(N[C@@H](Cc1ccc(O)cc1)C(=O)NCc1ccccn1)c1ccc2c(c1)nc(-c1ccoc1)n2C1CCCCC1 [Entry 1114],1 to 5,–,–

SMILES,IC50 [1] [µM],"IC50 (IC50 μM, Table 2) [µM]",also measured
O=C(N[C@H]1CC[C@H](N2C(=O)CNC2=O)CC1)c1ccc2c(c1)nc(-c1ccoc1)n2C1CCCCC1 [Entry 1193],10 to 25,–,–
COc1ccc(C[C@H](NC(=O)c2ccc3c(c2)nc(-c2ccoc2)n3C2CCCCC2)C(=O)O)cc1 [Entry 1022],1 to 5,–,–
NC(=O)[C@H](Cc1ccc(O)cc1)NC(=O)c1ccc2c(c1)nc(-c1ccoc1)n2C1CCCCC1 [Entry 16021],–,–,"IC50 (IC50, Table 16): < 1 µM"
"O=C(N[C@@H](Cc1c[nH]c2ccc([N+](=O)[O-])cc12)C(=O)O)c1ccc2c(c1)nc(-c1ccoc1)n2C1CCCCC1 [Entry 1125, (S)-2-{[1-(1-Cyclohexyl-2-furan-3-yl-1H-benzimidazol-5-yl)-methanoyl]-amino}-3-(5-nitro-1H-indol-3-yl)-propionic Acid]",1 to 5,–,–
O=C(N[C@@H](Cc1c[nH]c2ccc(O)cc12)C(=O)O)c1ccc2c(c1)nc(-c1cn[nH]c1)n2C1CCCCC1 [Entry 2142],–,< 1,–
COc1ccc(CNC(=O)c2ccc3c(c2)nc(-c2ccccn2)n3C2CCCCC2)c(OC)c1 [Entry 2007],–,10 to 25,–
"O=C(NC(Cc1ccc(O)cc1)c1ccccn1)c1ccc2c(c1)nc(-c1ccoc1)n2C1CCCCC1 (racemic) [Entry 1231, 1-Cyclohexyl-2-furan-3-yl-1H-benzimidazole-5-carboxylic Acid [2-(4-hydroxy-phenyl)-1-pyridin-2-yl-ethyl]-amide]",1 to 5,–,–
"O=C(N[C@@H](Cc1c[nH]c2ccc(O)cc12)C(=O)NCCN1CCCC1)c1ccc2c(c1)nc(-c1ccoc1)n2C1CCCCC1 [Entry 13019, 1-Cyclohexyl-2-furan-3-yl-1H-benzimidazole-5-carboxylic Acid [(S)-2-(5-Hydroxy-1H-indol-3-yl)-1-(2-pyrrolidin-1-yl-ethylcarbamoyl)-ethyl]-amide]",–,–,"IC50 (IC50, Table 13): < 1 µM"
CN(C)CCCNC(=O)COc1ccc(-c2nc3cc(C(=O)NCc4ccc(S(N)(=O)=O)cc4)ccc3n2C2CCCCC2)cc1 [Entry 2070],–,5 to 10,–
COc1ccc(C(NC(=O)c2ccc3c(c2)nc(-c2ccc[nH]2)n3C2CCCCC2)C(=O)O)cc1OC (centres unmarked) [Entry 2065],–,1 to 5,–
CCOc1ccc(C(C)NC(=O)c2ccc3c(c2)nc(-c2ccccn2)n3C2CCCCC2)cc1OCC (centres unmarked) [Entry 2045],–,1 to 5,–
"NC(=O)[C@H](Cc1c[nH]c2ccc(NC(=O)C(=O)NCc3ccc(C(=O)O)cc3)cc12)NC(=O)c1ccc2c(c1)nc(-c1ccoc1)n2C1CCCCC1 [Entry 13012, 4-[({1-[3-((S)-2-Carbamoyl-2-{[1-(1-cyclohexyl-2-furan-3-yl-1H-benzimidazol-5-yl)-methanoyl]-amino}-ethyl)-1H-indol-5-ylcarbamoyl]-methanoyl}-amino)-methyl]-benzoic Acid]",–,–,"IC50 (IC50, Table 13): < 1 µM"
O=C(NC(Cc1c[nH]c2ccc(O)cc12)C(=O)O)c1ccc2c(c1)nc(-c1ccoc1)n2C1C2CCC(C2)C1CO (centres unmarked) [Entry 3035],–,–,"IC50 (IC50 μM, Table 3): 1 to 5 µM"
O=C(O)c1ccc2c(c1)nc(-c1ccco1)n2C1CCCCC1 [Entry 7013],–,–,"IC50 (IC50 μM, Table 7): 1 to 5 µM"
CC(C)n1c(-c2ccoc2)nc2cc(C(=O)N[C@@H](Cc3c[nH]c4ccc(OCC(=O)O)cc34)C(=O)O)ccc21 [Entry 22006],–,–,"IC50 (IC50 μM, Table 22): < 1 µM"
CC(O)c1cc(C[C@H](NC(=O)c2ccc3c(c2)nc(-c2ccoc2)n3C2CCCCC2)C(=O)O)ccc1O (mixture of isomers) [Entry 16052],–,–,"IC50 (IC50, Table 16): < 1 µM"
O=C(NCC1CCNCC1)c1ccc2c(c1)nc(-c1ccoc1)n2C1CCCCC1 [Entry 1181],5 to 10,–,–
O=C(N[C@@H](Cc1c[nH]c2ccc(O)cc12)C(=O)O)c1ccc2c(c1)nc(-c1cc3ccccc3[nH]1)n2C1CCCCC1 [Entry 2110],–,1 to 5,–
CCOc1ccc(C(NC(=O)c2ccc3c(c2)nc(-c2ccoc2)n3C2CCCCC2)C(=O)O)cc1OCC (centres unmarked) [Entry 1013],1 to 5,–,–
COc1ccc(C(NC(=O)c2ccc3c(c2)nc(-c2ccoc2)n3C2CCCCC2)C(C)C)cc1OC (centres unmarked) [Entry 1006],5 to 10,–,–
"Nc1nc([C@H](Cc2ccc(O)cc2)NC(=O)c2ccc3c(c2)nc(-c2ccoc2)n3C2CCCCC2)cs1 [Entry 16060, 1-Cyclohexyl-2-furan-3-yl-1H-benzimidazole-5-carboxylic Acid [(S)-1-(2-Amino-thiazol-4-yl)-2-(4-hydroxy-phenyl)-ethyl]-amide]",–,–,"IC50 (IC50, Table 16): < 1 µM"
O=C(N[C@@H](Cc1c[nH]c2ccc(O)cc12)C(=O)O)c1ccc2c(c1)nc(-c1ccc(C(F)(F)F)cc1)n2C1CCCCC1 [Entry 2138],–,1 to 5,–
O=C(NC(Cc1cccc(O)c1)C(=O)O)c1ccc2c(c1)nc(-c1ccoc1)n2C1CCCCC1 (centres unmarked) [Entry 1023],1 to 5,–,–
O=C(N[C@@H](Cc1ccccc1)C(=O)O)c1ccc2c(c1)nc(-c1ccoc1)n2C1CCCCC1 [Entry 1015],5 to 10,–,–
COC(=O)[C@H](Cc1ccc(O)cc1)NC(=O)c1ccc2c(c1)nc(-c1ccoc1)n2C1CCCCC1 [Entry 1071],1 to 5,–,–
O=C(N[C@@H](Cc1ccc(-n2cc(C(=O)O)nn2)cc1)C(=O)O)c1ccc2c(c1)nc(-c1ccoc1)n2C1CCCCC1 [Entry 16049],–,–,"IC50 (IC50, Table 16): < 1 µM"
